{"source": "PubChem BioAssay AID686978", "about": "(National Center for Advancing Translational Sciences (NCATS), 2013)", "note": "In all, about 420,000 compounds went through this assay and about 64,000 (15%) were called active. Inconclusive means that the source gave no clear call. Such entries were picked first, then a sample of the others. Calls come from the whole dose curve; as a rule, active = well fitted inhibition curve with a large enough effect; inconclusive = small, poorly fitted or top-dose-only effect; inactive = flat fitted curve, though single readings scatter. Potencies of inconclusive entries are left out as doubtful fits. Potency is the fitted concentration of half-maximal effect; tags give direction and shape of the fitted curve."}
{"assay": "qHTS for Inhibitors of human tyrosyl-DNA phosphodiesterase 1 (TDP1): qHTS in cells in absence of CPT; note: nearly all actives have a fitted effect of over 55% in size", "conditions": "DT40 Tdp1-/- hTDP1 cells, no CPT, ATP luminescence, 48 h; series mostly up to 46.2 µM", "how_it_was_run": "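Stably hTDP1-transfected Tdp1-null chicken DT40 cells were treated with library compounds minus camptothecin and grown for at least 48 hr at 37 °C, after which cellular ATP was quantified by luminescence.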"}
{"smiles": "COc1cc(OC)c2ccc(=O)oc2c1C(CC(=O)N1CCOCC1)c1ccc(N(C)C)cc1", "note": "(stereo not drawn)", "Potency": "inactive"}
{"smiles": "O=[N+]([O-])c1ccc(N2CCOCC2)cc1NCc1ccccc1", "Potency": "inconclusive [inhibitor, partial curve]"}
{"smiles": "O=C(Cc1ccccc1)Nc1sc2c(c1C(=O)Nc1ccc(Br)cc1)CCC2", "Potency": "inconclusive [inhibitor, single point]"}
{"smiles": "O=C1CC(c2cccc([N+](=O)[O-])c2)c2cc3c(cc2N1)CCC3", "note": "(stereo not drawn)", "Potency": "active: 25.9 µM"}
{"smiles": "CC(C)(C)c1nc(C(C)(C)C)c(Br)c(=O)[nH]1", "Potency": "inconclusive [inhibitor, partial curve]"}
{"smiles": "COc1ccc(S(=O)(=O)NCc2ccc(C(=O)NCCCN3CC(C)CC(C)C3)cc2)cc1", "note": "(stereo not drawn)", "Potency": "inconclusive [inhibitor, single point]"}
{"smiles": "COc1ccc(NC(=S)N(CCC(C)C)C(C)c2ccncc2)cc1", "note": "(stereo not drawn)", "Potency": "inconclusive [inhibitor, single point]"}
{"smiles": "Nc1ccc2nc(-c3cccs3)[nH]c2c1", "Potency": "inconclusive [inhibitor, partial curve]"}
{"smiles": "O=c1[nH]c2cc3c(cc2cc1CN(Cc1ccco1)C(=S)NCCCN1CCOCC1)OCCO3", "Potency": "inconclusive [inhibitor, single point]"}
{"smiles": "Cc1cc(C)c2nc(-c3ccccn3)cc(C(=O)N3CCCC3)c2c1", "Potency": "inactive"}
{"smiles": "OC(c1ccc(Cl)c(F)c1)c1ncc(-c2ccc(Oc3ccccc3)cc2)[nH]1", "note": "(stereo not drawn)", "Potency": "inconclusive [inhibitor, single point]"}
{"smiles": "O=C(CS)Nc1ccccc1", "Potency": "inconclusive [inhibitor, single point]"}
{"smiles": "COc1cccc(N2CC(NC(=O)c3ccc(S(=O)(=O)N4CCOCC4)cc3)CC2=O)c1", "note": "(stereo not drawn)", "Potency": "inconclusive [inhibitor, single point]"}
{"smiles": "O=C(CCN1C(=O)/C(=C/c2ccc(F)cc2)SC1=S)Nc1cc([N+](=O)[O-])ccc1O", "Potency": "inconclusive [inhibitor, single point]"}
{"smiles": "CC(C)C[C@H]1CN(CCCC[C@@H]2CNC(=O)C(=O)N2CC2CCCCC2)C(=O)C(=O)N1Cc1ccccc1", "Potency": "inactive"}
{"smiles": "Cc1ccc(NC(=O)C2CCCN(S(=O)(=O)c3c(C)noc3C)C2)nc1", "note": "(stereo not drawn)", "Potency": "inactive"}
{"smiles": "O=C(Nc1ccc(F)cc1)c1csc2c1CCCCC2", "Potency": "inconclusive [inhibitor, single point]"}
{"smiles": "Cc1cc(O)c(C(=O)Cc2csc(C)n2)c(O)c1", "Potency": "inactive"}
{"smiles": "O=C(CNC(=S)N(Cc1ccccc1)Cc1ccccc1F)NCc1ccc(Cl)cc1", "Potency": "inconclusive [inhibitor, single point]"}
{"smiles": "O=C(NCc1ccc2c(c1)CCO2)Nc1cccc(C(F)(F)F)c1", "Potency": "inconclusive [inhibitor, single point]"}
{"smiles": "Cc1ccc(C2Nc3ccccc3-c3nc4ccccc4n32)o1", "note": "(stereo not drawn)", "Potency": "inconclusive [inhibitor, single point]"}
{"smiles": "O=C(c1ccccc1OCc1ccccc1Br)N1CCN(c2ncccn2)CC1", "Potency": "inconclusive [inhibitor, partial curve]"}
{"smiles": "C#CCn1c(=NC(=O)c2sc3ccccc3c2Cl)sc2cc(S(N)(=O)=O)ccc21", "Potency": "inconclusive [inhibitor, partial curve]"}
{"smiles": "COc1ccc(CNc2nc3c(-c4ccccc4)nnn3c3ccccc23)cc1", "Potency": "inconclusive [inhibitor, partial curve, poor fit]"}
{"smiles": "CC12CN3CC(C)(CN(C1)C3c1ccc(Cl)cc1Cl)C2=O", "note": "(stereo not drawn)", "Potency": "inactive"}
{"smiles": "Cc1cc(C)c2c(N)c(C(=O)N3CCN(c4ncccn4)CC3)sc2n1", "Potency": "inconclusive [inhibitor, single point]"}
{"smiles": "CN(CC(=O)Nc1cccc(F)c1)C(=O)CCCN1C(=O)c2cccc3cccc(c23)C1=O", "Potency": "inconclusive [inhibitor, partial curve, poor fit]"}
{"smiles": "CCOC(=O)C1CCN(C(=O)C(C)Oc2ccc(C(=O)c3ccccc3)cc2)CC1", "note": "(stereo not drawn)", "Potency": "inconclusive [inhibitor, single point]"}
{"smiles": "CCOC(=O)Nc1ccc(OCc2nnc3c4ccccc4c(C)nn23)cc1", "Potency": "inconclusive [inhibitor, single point]"}
{"smiles": "CCOc1ccc(C(=O)Nc2cccc3ncccc23)cc1Cl", "Potency": "inconclusive [inhibitor, single point]"}
{"smiles": "COc1cccc(OC)c1C(=O)NC(=S)Nc1ccc2c(c1)Cc1ccccc1-2", "Potency": "inconclusive [inhibitor, single point]"}
{"smiles": "O=C(Cc1ccc(F)cc1)Nc1nnc2n1CCS2", "Potency": "inactive"}
{"smiles": "Oc1c(C(Nc2ccccn2)c2ccccc2)ccc2cccnc12", "note": "(stereo not drawn)", "Potency": "inconclusive [inhibitor, single point]"}
{"smiles": "Cc1ccc2nc(-c3cccc(-c4nc5ccc(C)cc5o4)n3)oc2c1", "Potency": "inconclusive [inhibitor, single point]"}
{"smiles": "COc1cccc(C(O)C2OC(=O)c3ccccc32)c1OC", "note": "(stereo not drawn)", "Potency": "active: 9.2 µM"}
{"smiles": "CC1=CN2C(=N)/C(=C\\c3cn(CCCOc4ccccc4)c4ccccc34)C(=O)N=C2S1", "Potency": "inconclusive [inhibitor, partial curve, poor fit]"}
{"smiles": "N#Cc1cc2sc3nnc(-c4ccncc4)n3c2cc1C#N", "Potency": "active: 10.3 µM"}
{"smiles": "CCOc1ccc(NC(=O)c2cccc3ccccc23)cc1", "Potency": "active: 8.2 µM"}
{"smiles": "CCCN1C(=S)c2ccccc2C1c1ccccc1", "note": "(stereo not drawn)", "Potency": "inactive"}
{"smiles": "CCOC(=O)c1c(C)[nH]c(C)c1C(=O)COC(=O)c1cc(OC)c(OC)cc1OC", "Potency": "inconclusive [inhibitor, single point]"}
{"smiles": "CCOC(=O)C1(C)CCCN(C(=O)c2ccc(-c3ccccc3)cc2)C1", "note": "(stereo not drawn)", "Potency": "active: 16.4 µM"}
{"smiles": "CCOC1=C2[C@@H](CN(S(=O)(=O)c3ccc(C)cc3)[C@H]2c2ccc(CC)cc2)[C@H]2C(=O)N(C)C(=O)[C@H]2C1", "Potency": "inconclusive [inhibitor, single point]"}
{"smiles": "CC1=C(C(=O)OCCNC(=O)c2ccccc2O)C(c2ccccc2[N+](=O)[O-])C(C(=O)OCC2CCCO2)=C(C)N1", "note": "(stereo not drawn)", "Potency": "active: 18.4 µM"}
